{
  "source": "PubChem BioAssay AID588855",
  "about": "(National Center for Advancing Translational Sciences (NCATS), 2011)",
  "note": "Out of some 410,000 compounds screened, about 5,000 (1.2%) were called active. The shares of active, inactive and inconclusive entries below differ from those in the screen. Calls follow the shape of the dose curve; as a rule, active = well fitted inhibition curve with a large enough effect; inconclusive = small, poorly fitted or top-dose-only effect; inactive = no such curve, though single readings can be large or run the other way. Where the call is inconclusive, the potency comes from a doubtful curve fit. Potency is read from the fitted curve at half-maximal effect; tags tell the direction and shape of the fitted curve.",
  "data": [
    {"experiment": "qHTS for Inhibitors of TGF-b; also: nearly all actives have a fitted effect of over 65% in size", "settings": "HepG2 CAGA-GFP TGF-b/SMAD3 reporter, GFP fluorescence, 18 h, TGF-beta stimulated, 500 pg/mL final; series mostly up to 46.1 µM", "method_in_brief": "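HEPG2 CAGA-GFP, 1000 cells/well; 2 h settle, 37 C; cpd via pin tool; TGF-b 500 pg/mL final; 18 h, 37 C; GFP imaging ex488/em500-530; %Activity normalised to -TGF-b and +DMSO controls; CRC fit, curve class.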", "values": [
      {"smiles": "O=C(CCC(=O)c1ccc(F)cc1)Nc1cccc(S(=O)(=O)Nc2cccc(Cl)c2)c1", "Potency": "active: 12.6 µM"},
      {"smiles": "CCCN1C(=O)CC(c2ccco2)Sc2ccccc21", "note": "(stereo unspecified)", "Potency": "inactive"},
      {"smiles": "CCOC(=O)C1CCN(C(=O)c2ccc(NS(=O)(=O)c3ccc(F)cc3C)cc2)CC1", "Potency": "inactive"},
      {"smiles": "CNC(=S)N1N=C(c2ccc(Br)cc2)CC1c1ccc(OC)cc1", "note": "(stereo unspecified)", "Potency": "inconclusive: 25.1 µM [inhibitor, single point]"},
      {"smiles": "CCCc1nc(SC)ncc1C(=O)N1CCN(c2ccc(Cl)cc2)CC1", "Potency": "inconclusive: 31.6 µM [inhibitor, single point]"},
      {"smiles": "COc1cc(O)c(C(CCN2CCCCC2)c2ccc3c(c2)OCO3)c(OC)c1", "note": "(stereo unspecified)", "Potency": "inconclusive: 35.5 µM [inhibitor, single point]"},
      {"smiles": "COc1cccc(CN(C(=O)/C=C/c2ccc(Cl)cc2)C2CCS(=O)(=O)C2)c1", "note": "(stereo unspecified)", "Potency": "inactive"},
      {"smiles": "Cc1c(C(=O)N2CCN(C3CCS(=O)(=O)C3)CC2)oc2c(F)cccc12", "note": "(stereo unspecified)", "Potency": "inactive"},
      {"smiles": "O=C(CNS(=O)(=O)c1ccc2ccccc2c1)Nc1ccc(F)c(F)c1F", "Potency": "inconclusive: 8.91 µM [inhibitor, partial curve, poor fit]"},
      {"smiles": "S=c1[nH]nc(COc2ccc(Cl)cc2Cl)n1-c1ccccc1", "Potency": "inactive"},
      {"smiles": "N#C/C(=C\\C1=C(N2CCOCC2)C(=C\\c2ccc(Cl)cc2)/CC1)C(=O)Nc1ccccc1F", "Potency": "inactive"},
      {"smiles": "Cc1ccccc1-c1csc(C(C)(O)c2ccc(F)c(F)c2)n1", "note": "(stereo unspecified)", "Potency": "inconclusive: 35.5 µM [inhibitor, single point]"},
      {"smiles": "COc1ccccc1NC(=O)CN1CCCN(S(=O)(=O)c2ccc(Br)cc2)CC1", "Potency": "inconclusive: 35.5 µM [inhibitor, partial curve, poor fit]"},
      {"smiles": "CC1CCc2c(nc3ncnn3c2Nc2ccc(OC(F)(F)F)cc2)C1", "note": "(stereo unspecified)", "Potency": "active: 15.8 µM"},
      {"smiles": "COc1ccc(NC(=O)c2cccn2-c2nnc(N3CCCCC3)s2)cc1Cl", "Potency": "inconclusive: 3.55 µM [inhibitor, single point]"},
      {"smiles": "CCOC(=O)CNC(=O)c1cccnc1Oc1ccc(Cl)cc1", "Potency": "inactive"},
      {"smiles": "COc1ccc(CC(=O)N2N=C(C)CC2(O)C(F)(F)F)cc1OC", "note": "(stereo unspecified)", "Potency": "inactive"},
      {"smiles": "CCCc1nnc(NC(=O)CCC(=O)NCc2ccc(OC)cc2)s1", "Potency": "inactive"},
      {"smiles": "COc1ccccc1CNC(=O)c1ccc2c(c1)nc(C)n2-c1ccccc1OC", "Potency": "inactive"},
      {"smiles": "CCOC(=O)C1CCCN(CCC(=O)Nc2ccc(Br)cc2)C1", "note": "(stereo unspecified)", "Potency": "inactive"},
      {"smiles": "Oc1cccc(-c2nc3ccc4ccccc4c3c3c2CCC3)c1", "Potency": "inconclusive: 0.562 µM [inhibitor, full curve, poor fit]"},
      {"smiles": "Cc1sc(NC(=O)Cc2ccc3c(c2)OCO3)nc1-c1ccc2c(c1)CCN2C(=O)c1ccccc1F", "Potency": "inactive"},
      {"smiles": "CCCCN=c1scc(-c2ccc3c(c2)NC(=O)CO3)n1N=C1CCCC1", "Potency": "inconclusive: 12.6 µM [inhibitor, partial curve, poor fit]"},
      {"smiles": "O=C(CSc1ccc(Cl)cc1)NNC(=O)c1cccnc1", "Potency": "inconclusive: 35.5 µM [inhibitor, single point]"},
      {"smiles": "COc1cc(Nc2ncc3c(n2)CCN(Cc2cc(Br)cs2)C3)cc(OC)c1", "Potency": "inconclusive: 3.98 µM [inhibitor, partial curve]"},
      {"smiles": "Cc1cc(Nc2ccc(F)cc2)n2c(nc3ccccc32)c1C#N", "Potency": "inactive"},
      {"smiles": "O=C(Cc1cccc(NC(=O)C2CCCN(C(=O)C3CCCC3)C2)c1)Nc1ccc(C(=O)N2CCOCC2)cc1", "note": "(stereo unspecified)", "Potency": "inactive"},
      {"smiles": "Cc1ccc(N2C(=O)CCSC23C(=O)N(Cc2ccccc2)c2ccccc23)cc1F", "note": "(stereo unspecified)", "Potency": "inconclusive: 20 µM [inhibitor, single point]"},
      {"smiles": "C[C@@H](NC(=O)c1coc(=O)c(Br)c1)c1ccccc1", "Potency": "inconclusive: 10 µM [inhibitor, partial curve, poor fit]"},
      {"smiles": "COc1ccc(OC)c(/C=C(/C#N)c2nc(-c3ccc(-c4ccccc4)cc3)cs2)c1", "Potency": "inactive"},
      {"smiles": "O=C(NCc1ccc(F)cc1)c1cc2c(=O)n3ccccc3nc2s1", "Potency": "inactive"},
      {"smiles": "C[C@H](CO)N1C[C@H](C)[C@H](CN(C)C(=O)CCC(F)(F)F)OCc2cnnn2CCCC1=O", "Potency": "inactive"},
      {"smiles": "Cc1cc(C)cc(NS(=O)(=O)c2ccc3[nH]cc(C(=O)N(C)Cc4ccccc4)c(=O)c3c2)c1", "Potency": "inconclusive: 25.1 µM [inhibitor, single point]"},
      {"smiles": "Cc1ccccc1CN1C(=O)c2ccccc2Sc2ccc(C(=O)NC(C)c3ccccc3)cc21", "note": "(stereo unspecified)", "Potency": "inconclusive: 5.62 µM [inhibitor, partial curve, poor fit]"},
      {"smiles": "CC(C)(C)NC(=O)COC(=O)CNC(=O)c1cc(Cl)cc([N+](=O)[O-])c1", "Potency": "inconclusive: 25.1 µM [inhibitor, single point]"},
      {"smiles": "Cc1ccc(-c2nnc(C3CCN(S(=O)(=O)c4ccc(C)c(C)c4)CC3)o2)cc1", "Potency": "inconclusive: 15.8 µM [inhibitor, single point]"},
      {"smiles": "Cn1c(=O)oc2cc(S(=O)(=O)NCCCN3CCCC3=O)ccc21", "Potency": "inactive"},
      {"smiles": "Cc1ccc(C)c(S(=O)(=O)N2CCN(C(=O)CCC(=O)NCc3ccc(Cl)cc3)CC2)c1", "Potency": "inconclusive: 17.8 µM [inhibitor, single point]"},
      {"smiles": "CCOc1ccccc1NC(=O)CN1C(=O)CC(c2ccc(OC)c(OC)c2)Sc2ccccc21", "note": "(stereo unspecified)", "Potency": "inactive"},
      {"smiles": "COc1ccc(-c2n[nH]c(C(F)(F)F)c2-c2cc3ccccc3o2)c(O)c1", "Potency": "inconclusive: 25.1 µM [inhibitor, single point]"},
      {"smiles": "Cc1cc2c(cc1C)N(C(=O)CN1C(=O)c3ccccc3C1=O)C(C)(C)c1ssc(=S)c1-2", "Potency": "inconclusive: 1 µM [inhibitor, full curve, poor fit]"},
      {"smiles": "CCOc1ccc(C2C([N+](=O)[O-])=C(C)N(C)C(=O)N2C)cc1OC", "note": "(stereo unspecified)", "Potency": "inactive"},
      {"smiles": "Cn1c(-n2cccc2)c(-c2c(-c3ccccc3)[nH]c3c2c(=O)n(C)c(=O)n3C)c(=O)n(C)c1=O", "Potency": "inactive"},
      {"smiles": "COc1ccc(C2CC(c3cccc(C)c3)n3nc(N)nc3N2)cc1", "note": "(stereo unspecified)", "Potency": "inactive"},
      {"smiles": "Cc1ccc(S(=O)(=O)Nc2ccc(C(OC(=O)c3ccccc3[N+](=O)[O-])(C(F)(F)F)C(F)(F)F)cc2)cc1", "Potency": "active: 10 µM"},
      {"smiles": "C=CCn1c(=O)c2ccccc2n2c(SCc3cc(=O)n4ccsc4n3)nnc12", "Potency": "inconclusive: 6.31 µM [inhibitor, partial curve, poor fit]"}
    ]}
  ]
}
